{"source": "the supplement of paper PMC4604168 (melanoma cell lines)", "note": "This is one part of the list. Most values come without repeats; read them as rough.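 Also: cells treated in 1,536-well plates, then fixed and DAPI-stained, with nuclei counted from automated high-throughput microscope images.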", "data": [{"tested_on": "A375", "assay": "cell count relative to DMSO control; melanoma cells; higher = more viable cells", "conditions": "library dose: standard library concentration; 72 h", "units": {"cell count": "%"}, "values": [{"smiles": "OCc1c[nH]c2ccccc12", "note": "[Indole-3-carbinol] + Cc1cc([N+](=O)[O-])ccc1NS(=O)(=O)c1cc(Cl)ccc1Cl [FH535] (first compound 4 µM, partner dose 5 µM)", "cell count": 90.4}, {"smiles": "O=C(CCCCCCC(=O)Nc1ccccc1)NO", "note": "[vorinostat] + O=c1cc(-c2cccc3c2Sc2ccccc2S3)oc(N2CCOCC2)c1 [KU55933] (first compound 0.4 µM, partner dose 5 µM)", "cell count": 124}, {"smiles": "C#Cc1cccc(Nc2ncnc3cc(OCCOC)c(OCCOC)cc23)c1", "note": "[erlotinib] + Oc1cc(-c2nc(-c3ccccc3)[nH]c2-c2ccncc2)ccc1Cl [L779450] (first compound 4 µM, partner dose 1 µM)", "cell count": 69.9}, {"smiles": "Cn1c(Nc2ccc(C(F)(F)F)cc2)nc2cc(Oc3ccnc(-c4ncc(C(F)(F)F)[nH]4)c3)ccc21", "note": "+ Oc1cc(-c2nc(-c3ccccc3)[nH]c2-c2ccncc2)ccc1Cl [L779450] (first compound 0.4 µM, partner dose 1 µM)", "cell count": 51.9}, {"smiles": "COCC[n+]1c2c(n(Cc3cnccn3)c1C)C(=O)c1ccccc1C2=O", "note": "+ O=C(O)C(=O)Nc1sc2c(c1C(=O)O)CCNC2 [TCS401] (first compound 0.002 µM, partner dose 8.33333 µM)", "cell count": 111}, {"smiles": "Cn1c(Nc2ccc(C(F)(F)F)cc2)nc2cc(Oc3ccnc(-c4ncc(C(F)(F)F)[nH]4)c3)ccc21", "note": "+ O=C(O)C(=O)Nc1sc2c(c1C(=O)O)CCNC2 [TCS401] (first compound 0.4 µM, partner dose 8.33333 µM)", "cell count": 108}, {"smiles": "Nc1cccc2c1CN(C1CCC(=O)NC1=O)C2=O", "note": "(stereo unspecified) [lenalidomide] + COc1ccc2c(c1)CCC1C2CCC2(C)C(NCCCCCCN3C(=O)C=CC3=O)CCC12 [U73122] (first compound 5 µM, partner dose 2 µM)", "cell count": 60.1}, {"smiles": "Cn1c(Nc2ccc(C(F)(F)F)cc2)nc2cc(Oc3ccnc(-c4ncc(C(F)(F)F)[nH]4)c3)ccc21", "note": "+ O=c1cc(-c2cccc3c2Sc2ccccc2S3)oc(N2CCOCC2)c1 [KU55933] (first compound 0.4 µM, partner dose 5 µM)", "cell count": 83.3}, {"smiles": "O=C(CCCCCCC(=O)Nc1ccccc1)NO", "note": "[vorinostat] + Cn1cc(/C=C2\\C(=O)Nc3cccnc32)c2ccccc21 [GW441756] (first compound 0.4 µM, partner dose 2 µM)", "cell count": 144}, {"smiles": "Clc1ccc(Nc2nnc(Cc3ccncc3)c3ccccc23)cc1", "note": "[vatalanib] + c1cc(-c2cnn3cc(-c4ccc(OCCN5CCCCC5)cc4)cnc23)ccn1 [Dorsomorphin] (first compound 10 µM, partner dose 2 µM)", "cell count": 82.3}, {"smiles": "OCc1c[nH]c2ccccc12", "note": "[Indole-3-carbinol] + Oc1nc(-c2ccc(C(F)(F)F)cc2)nc2c1CSCC2 [XAV939] (first compound 4 µM, partner dose 10 µM)", "cell count": 93}, {"smiles": "C#Cc1cccc(Nc2ncnc3cc(OCCOC)c(OCCOC)cc23)c1", "note": "[erlotinib] + COc1ccc(COc2ccc(Cc3cnc(N)nc3N)cc2OC)cc1 [GW2580] (first compound 4 µM, partner dose 5 µM)", "cell count": 119}, {"smiles": "O=C(CCCCCCC(=O)Nc1ccccc1)NO", "note": "[vorinostat] + COC(=O)c1sccc1S(=O)(=O)Nc1ccc(Nc2ccccc2)cc1OC [GSK0660] (first compound 0.4 µM, partner dose 5 µM)", "cell count": 137}, {"smiles": "Nc1cccc2c1CN(C1CCC(=O)NC1=O)C2=O", "note": "(stereo unspecified) [lenalidomide] + COc1ccc(-c2ccc3c(N4CCOCC4)nc(N4C[C@@H](C)O[C@@H](C)C4)nc3n2)cc1CO [KU0063794] (first compound 5 µM, partner dose 0.1 µM)", "cell count": 117}, {"smiles": "O=C(CCCCCCC(=O)Nc1ccccc1)NO", "note": "[vorinostat] + COc1ccc2c(c1)CCC1C2CCC2(C)C(NCCCCCCN3C(=O)C=CC3=O)CCC12 [U73122] (first compound 0.4 µM, partner dose 2 µM)", "cell count": 81.8}, {"smiles": "Cn1c(Nc2ccc(C(F)(F)F)cc2)nc2cc(Oc3ccnc(-c4ncc(C(F)(F)F)[nH]4)c3)ccc21", "note": "+ CCCCCCCCCCCC1=C(O)C(=O)C=C(O)C1=O [Embelin] (first compound 0.4 µM, partner dose 6 µM)", "cell count": 82.5}]}]}
